# Values joined by “and” are separate entries in the source; they are usually repeats but may differ in a detail not shown here. Identical values can stand only once. The whole screen tested about 94,000 compounds, of which about 6,200 (6.6%) were called active. Inconclusive means that the source gave no clear call. Such entries were picked first, then a sample of the others. Calls come from the whole dose curve; as a rule, active = well fitted inhibition curve with a large enough effect; inconclusive = small, poorly fitted or top-dose-only effect; inactive = flat fitted curve, though single readings scatter. Potencies of inconclusive entries are doubtful fits and often do not repeat.
# Assay: Cytotoxic Profiling in HEK 293 Cell Line of Diverse Libraries Using Quantitative High-Throughput Screening; note: nearly all actives have a fitted effect of over 60% in size
# Conditions: HEK 293 viability, ATP luminescence (CellTiter-Glo), 48-72 h; activity change, negative = cytotoxicity: at 115 µM (top of the series) unless noted; series mostly up to 115 µM
# Summary of the method: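 Cytotoxicity was scored by loss of ATP-coupled luminescence (CellTiter-Glo) in HEK 293 cells. Compound treatment ran 48 or 72 hr at 37 degree Celsius, 5% CO2, 95% humidity.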
# % is set by controls: 0 for no effect and ±100 for the full control effect; potency is the fitted concentration of half-maximal effect; tags give direction and shape of the fitted curve.
SMILES,"activity change, negative = cytotoxicity",Potency,outcome
COc1ccc(N2CC3(COCC2=O)CN(c2ccc(C(F)(F)F)cn2)C3)cn1,inactive: -19.9% [at 172 µM],,
CCc1nc2c(c(-c3ccc(O)cc3)n1)CN(Cc1ccc(OC(F)(F)F)cc1)CC2,,"inconclusive: 89.1 µM [inhibitor, partial curve, poor fit]",
COc1cccc(-c2ccc(CN3CCCC3C(=O)NC3CCCC3)cc2)c1 (stereo not given),,"inconclusive: 44.7 µM [inhibitor, partial curve, poor fit]",
CN1c2cc(C(=O)NCc3ccc(F)cc3)ccc2C(=O)N2CCCC21 (stereo not given),,"inconclusive: 79.4 µM [inhibitor, single point]",
O=C(NC1CCN(c2ccc(F)cc2)C1=O)c1ccc(F)cc1Cl (stereo not given),,"inconclusive: 79.4 µM [inhibitor, partial curve, poor fit]",
Cc1ccc(S(=O)(=O)N2CCCC2C(=O)N2CCC(c3ccccc3)CC2)cc1 (stereo not given),,"inconclusive: 50.1 µM [inhibitor, partial curve, poor fit]",
COc1cccc(-c2cc(C(=O)Nc3cccc(Cl)c3)c3cnn(C)c3n2)c1,,"inconclusive: 79.4 µM [inhibitor, partial curve] and active: 39.8 µM",
O=C(C1CCCCC1)N1CC2CC(C1)[C@H]1CCCC(=O)N1C2 (stereo not given in full),inactive: -4.23%,,
Cc1ccc(C(=O)NC(C(=O)N2CCCCC2)C2CCN(S(=O)(=O)C(C)C)CC2)cc1 (stereo not given),inactive: 4.48%,,
COc1ccc(OCC2CC3(CCCCC3)CN2C(=O)Cc2cccc(F)c2)cc1 (stereo not given),,active: 39.8 µM,
CN(Cc1ccccc1)C(=O)CC1CCN(C(=O)Nc2ccccc2)C1 (stereo not given),,"inconclusive: 89.1 µM [inhibitor, single point]",
COc1cccc(S(=O)(=O)N2CC(n3cc(C(=O)NCc4ccccc4)nn3)C2)c1,,"inconclusive: 100 µM [inhibitor, single point]",
O=C(NCC(F)F)C1CCCN1c1nccc(Nc2ccccc2F)n1 (stereo not given),inactive: -12.1%,,
CN(C)C[C@H]1O[C@@H](CO)[C@@H](O)[C@H]1N1CCCC1,inactive: 1.11% [at 230 µM],,
O=C(C1CCCC1)N1Cc2ccccc2CC2(CCN(Cc3ccncc3)CC2)C1,,"inconclusive: 56.2 µM [inhibitor, partial curve, poor fit]",
CN1C(=O)c2cccn2CC1CNS(=O)(=O)c1ccc(F)cc1 (stereo not given),,"inconclusive: 89.1 µM [inhibitor, single point]",
CC(C)c1cc(C(=O)N2CCCC(c3ccccc3)(c3ccccc3)C2)n(C)n1,,"inconclusive: 44.7 µM [inhibitor, partial curve, poor fit]",
Cc1nn(-c2ccccc2)c2c1C(C)N(C1CN(C(=O)Cc3ccc(F)cc3)C1)C2=O (stereo not given),,"inconclusive: 50.1 µM [inhibitor, partial curve, poor fit]",
CCn1nc(C)c(CNC(=O)C(c2ccc(F)cc2)N(C)C)c1C (stereo not given),,,inactive
CCCCSCc1cc(C(=O)N2CCC3(CCCN(C)C3=O)C2)oc1C (stereo not given),,"inconclusive: 44.7 µM [inhibitor, partial curve]",

SMILES,"activity change, negative = cytotoxicity",Potency,outcome
CC1(COc2ccccc2)COc2ccc(C(=O)NCc3cccc(F)c3)cc2N1 (stereo not given),,"inconclusive: 70.8 µM [inhibitor, partial curve, poor fit]",
CC1=NS(=O)(=O)N(C)C=C1C(=O)OCc1nc(-c2ccccc2)no1,,"inconclusive: 50.1 µM [inhibitor, partial curve, poor fit]",
CC(C)NC(=O)C1CCN(c2nccc(Nc3ccccc3Cl)n2)CC1,,"inconclusive: 50.1 µM [inhibitor, partial curve, poor fit]",
CN1c2cc(C(=O)NCCCc3ccccc3)ccc2C(=O)N2CCCCC21 (stereo not given),,"inconclusive: 3.98 µM [inhibitor, full curve, poor fit]",
O=C1NCc2ccccc2CC12CCCN2Cc1cccc(Br)c1 (stereo not given),inactive: -7.42%,,
COc1ccccc1-c1cnc2n[nH]c(-c3ccc(F)cc3C)c2n1,,"inconclusive: 79.4 µM [inhibitor, partial curve, poor fit]",
Cc1oc2ccn(Cc3ccccc3F)c(=O)c2c1C(=O)NCc1cccc(Cl)c1,,"inconclusive: 31.6 µM [inhibitor, full curve]",
Cc1ccc(CN2C(=O)NC3(CCN(C(=O)c4ccc(C(C)(C)C)cc4)C3)C2=O)cc1 (stereo not given),,"inconclusive: 56.2 µM [inhibitor, partial curve, poor fit]",
CC(=O)N1CC2(CCN(CC3CC3)C2)Cc2ccccc21 (stereo not given),inactive: -6.9% [at 172 µM],,
Cc1cccc(CNC(=O)c2ccc3c(c2)N(C)C2CCCN2C3=O)c1 (stereo not given),,"inconclusive: 100 µM [inhibitor, single point]",
CCCN(C)c1nccnc1OC1CCN(C(=O)C(CC)CC)C1 (stereo not given),,"inconclusive: 44.7 µM [inhibitor, partial curve, poor fit]",
O=C(NCc1ccccc1F)c1ccc2c(c1)CN(Cc1ccsc1)CCO2,,"inconclusive: 89.1 µM [inhibitor, single point]",
CCCOc1ccccc1C(C)Nc1nc(-c2cccnc2)nc2c1CNC2 (stereo not given),,active: 79.4 µM,
CCOC(=O)C1CCCN(C(=O)c2ccc3oc(-c4ccncc4Cl)nc3c2)C1 (stereo not given),,"inconclusive: 31.6 µM [inhibitor, partial curve, poor fit]",
Cc1ccc(Nc2ccnc(N3CCCN(C(=O)C4CCCC4)C3)n2)cc1,,active: 12.6 µM,
O=C(NCc1ccccc1)c1ccc2c(c1)OCCN(C1CCC1)C2,,"inconclusive: 100 µM [inhibitor, partial curve]",
Clc1ccccc1C1(c2ccnc(NCc3ccccn3)n2)CCNCC1,,"inconclusive: 79.4 µM [inhibitor, partial curve, poor fit]",
CCn1c(C2CCN(C(=O)c3cc(F)cc(F)c3)CC2)nn(C)c1=O,inactive: -7.16%,,
Cc1cccc(C(=O)N2C(C(=O)NCc3ccc4c(c3)OCO4)COC23CCC(C)CC3)c1 (stereo not given),,"inconclusive: 50.1 µM [inhibitor, partial curve, poor fit]",
COc1ccc(S(=O)(=O)N2CCc3c(C(=O)NCc4cccc(F)c4)cccc32)cc1,,"inconclusive: 25.1 µM [inhibitor, full curve, poor fit]",

# From PubChem BioAssay AID1345083 (National Center for Advancing Translational Sciences (NCATS), 2018)
